{"source": "the supplement of paper PMC3334620", "note": "In all, about 33,000 sequences were measured (“E-score (-0.5 to 0.5)”: median about -0.056, highest 2% from about 0.38 on). Some of the results follow.", "data": [{"target": "Stb4 (UniProt P50104)", "assay": "PBM E-score (8-mer binding enrichment) (E-score (-0.5 to 0.5)); higher = stronger / more preferred TF binding; most listed sequences are background and not binding sites", "conditions": "protein concentration: 200 nM; construct: GST-DNA-binding domain", "description": "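Universal 'all 10-mer' protein binding microarrays (Agilent AMADID 015681) probed with GST-tagged S. cerevisiae TFs (full-length or DBD) made by in vitro transcription/translation (PURExpress), about 100-200 nM. Bound TF was detected with fluorescent anti-GST. Each ungapped 8-mer (which stands for itself and its reverse complement) is scored by the PBM enrichment score (E-score), a modified Wilcoxon-Mann-Whitney statistic from -0.5 to +0.5, computed with the Universal PBM Analysis Suite. Scale: above 0.35 generally sequence-specific binding.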", "values": [{"sequence": "AACGTTGC", "PBM E-score": 0.0148}, {"sequence": "AGCAGCGA", "PBM E-score": -0.102}, {"sequence": "GCAAACCC", "PBM E-score": 0.152}, {"sequence": "GTAAGGGA", "PBM E-score": -0.0531}, {"sequence": "AAACGGGT", "PBM E-score": 0.201}, {"sequence": "ACTTGCCT", "PBM E-score": -0.0836}, {"sequence": "CACGAAGC", "PBM E-score": -0.141}, {"sequence": "GATGCGAC", "PBM E-score": 0.0109}, {"sequence": "GTTTCCCA", "PBM E-score": -0.0576}, {"sequence": "AAAATTCC", "PBM E-score": 0.165}, {"sequence": "CGCGGCAC", "PBM E-score": 0.166}, {"sequence": "GTGGCGAA", "PBM E-score": 0.0896}, {"sequence": "GAACAGCA", "PBM E-score": 0.0106}, {"sequence": "ACAGTCGT", "PBM E-score": -0.0477}, {"sequence": "CCGAGGAC", "PBM E-score": 0.371}, {"sequence": "GAAACGTA", "PBM E-score": 0.0657}, {"sequence": "ATGACAAC", "PBM E-score": 0.0244}, {"sequence": "AAGCGACT", "PBM E-score": -0.145}, {"sequence": "GCTCAACA", "PBM E-score": -0.105}, {"sequence": "TGCATAAA", "PBM E-score": -0.0897}, {"sequence": "AAGACTCT", "PBM E-score": -0.224}, {"sequence": "GGTTGTCA", "PBM E-score": -0.00772}, {"sequence": "AGGACCTC", "PBM E-score": -0.198}, {"sequence": "GCATTTGA", "PBM E-score": -0.0256}, {"sequence": "ACTTCGTC", "PBM E-score": 0.0446}, {"sequence": "AGTTCCGA", "PBM E-score": 0.474}, {"sequence": "ACGGGGTA", "PBM E-score": -0.047}, {"sequence": "CCGACTTC", "PBM E-score": 0.289}, {"sequence": "CCTTAACA", "PBM E-score": -0.317}, {"sequence": "AGGGGATA", "PBM E-score": -0.24}, {"sequence": "CCGCAATC", "PBM E-score": 0.185}, {"sequence": "AGAGTCTC", "PBM E-score": -0.0128}, {"sequence": "ATTTAGTG", "PBM E-score": -0.0726}, {"sequence": "AGGTGTAT", "PBM E-score": -0.0407}, {"sequence": "ATGATATA", "PBM E-score": -0.146}, {"sequence": "CTACTCCC", "PBM E-score": 0.0363}, {"sequence": "CGTAAACG", "PBM E-score": 0.0148}, {"sequence": "CTTGGGAC", "PBM E-score": -0.15}, {"sequence": "ATAGCACA", "PBM E-score": -0.0242}, {"sequence": "ACGGTTAC", "PBM E-score": 0.163}, {"sequence": "ATACAAAT", "PBM E-score": 0.151}, {"sequence": "TAATAGCA", "PBM E-score": -0.255}, {"sequence": "CGATGAAG", "PBM E-score": -0.0156}, {"sequence": "ATCTTCCG", "PBM E-score": 0.436}, {"sequence": "ACCGATCT", "PBM E-score": 0.204}, {"sequence": "AAGCATCG", "PBM E-score": 0.0371}, {"sequence": "AGACGAAT", "PBM E-score": -0.215}, {"sequence": "ATTTCTTA", "PBM E-score": 0.00967}, {"sequence": "GCCCCCGA", "PBM E-score": 0.214}, {"sequence": "ACTGTTGG", "PBM E-score": -0.15}, {"sequence": "CTACTAGA", "PBM E-score": -0.097}, {"sequence": "CCCTTTAG", "PBM E-score": -0.413}, {"sequence": "CTAACCAG", "PBM E-score": -0.125}, {"sequence": "CAAATATG", "PBM E-score": -0.00501}, {"sequence": "AAGACGAA", "PBM E-score": -0.171}, {"sequence": "ATCTCTCC", "PBM E-score": -0.0875}, {"sequence": "TAATGCAA", "PBM E-score": -0.26}, {"sequence": "AAACAGGA", "PBM E-score": -0.0855}, {"sequence": "GCCAACGC", "PBM E-score": -0.192}, {"sequence": "GATCAATC", "PBM E-score": 0.0474}, {"sequence": "CAGCGCTG", "PBM E-score": -0.0064}, {"sequence": "CCGTAGGA", "PBM E-score": -0.0768}, {"sequence": "GACCGCCC", "PBM E-score": 0.12}, {"sequence": "ACCGTTTC", "PBM E-score": 0.132}, {"sequence": "CTACCGTA", "PBM E-score": 0.0709}, {"sequence": "AAGTCTGT", "PBM E-score": -0.285}, {"sequence": "CGGGTTGC", "PBM E-score": 0.107}, {"sequence": "CCGACAGC", "PBM E-score": 0.226}, {"sequence": "ATACGAAG", "PBM E-score": -0.0224}, {"sequence": "AAATAAAC", "PBM E-score": 0.0562}, {"sequence": "CGGATCGC", "PBM E-score": 0.361}, {"sequence": "GGACGGCA", "PBM E-score": 0.217}, {"sequence": "GTGTGACA", "PBM E-score": -0.127}, {"sequence": "CGTGGCCA", "PBM E-score": -0.199}, {"sequence": "CCATTTTA", "PBM E-score": 0.0607}, {"sequence": "GGAAGGCA", "PBM E-score": 0.0907}, {"sequence": "AATGCGCC", "PBM E-score": 0.139}, {"sequence": "ATTTCTCC", "PBM E-score": 0.129}, {"sequence": "AACTTTCT", "PBM E-score": 0.0507}, {"sequence": "ATAGTAGC", "PBM E-score": 0.0449}, {"sequence": "ATCGCCGC", "PBM E-score": -0.0565}, {"sequence": "GTCCGCGA", "PBM E-score": 0.113}, {"sequence": "AAGGTGCC", "PBM E-score": 0.0178}, {"sequence": "ACGGCTTC", "PBM E-score": 0.0487}, {"sequence": "GAGAATGA", "PBM E-score": -0.0884}, {"sequence": "GTTGATAA", "PBM E-score": -0.166}, {"sequence": "GGCCTCCA", "PBM E-score": -0.12}, {"sequence": "CGACCACG", "PBM E-score": 0.0297}, {"sequence": "CTGCAGCC", "PBM E-score": 0.0108}, {"sequence": "AAGCTGAA", "PBM E-score": -0.00862}, {"sequence": "GGAGCACC", "PBM E-score": 0.0264}, {"sequence": "ATCGAGTG", "PBM E-score": 0.0369}, {"sequence": "ACTTGCCG", "PBM E-score": 0.279}, {"sequence": "CTGACAAC", "PBM E-score": -0.154}, {"sequence": "AGTATGGC", "PBM E-score": 0.00537}, {"sequence": "ATCAGGAC", "PBM E-score": -0.194}, {"sequence": "AGGTTTCG", "PBM E-score": 0.0127}, {"sequence": "CTTCGTCC", "PBM E-score": -0.138}, {"sequence": "GAGCGGTA", "PBM E-score": -0.00363}, {"sequence": "ACAAAAGA", "PBM E-score": 0.0966}, {"sequence": "TAAAGCGA", "PBM E-score": -0.0633}, {"sequence": "ATGGGTAC", "PBM E-score": -0.287}, {"sequence": "CACGATGC", "PBM E-score": -0.134}, {"sequence": "AGTTTAGG", "PBM E-score": -0.238}, {"sequence": "AACCATCT", "PBM E-score": -0.118}, {"sequence": "TCTTGTCA", "PBM E-score": -0.233}, {"sequence": "AACGTCCG", "PBM E-score": 0.182}, {"sequence": "GATCACTA", "PBM E-score": 0.0137}, {"sequence": "CGATAATA", "PBM E-score": 0.134}, {"sequence": "TAAATTTA", "PBM E-score": 0.128}, {"sequence": "AGTCCGCA", "PBM E-score": 0.025}, {"sequence": "CGTCCGTC", "PBM E-score": 0.0154}, {"sequence": "TGGTGTAA", "PBM E-score": -0.148}, {"sequence": "AAACTACG", "PBM E-score": 0.0415}, {"sequence": "AACTAAAA", "PBM E-score": 0.0244}, {"sequence": "CACTCCCA", "PBM E-score": -0.323}, {"sequence": "CGCATGAG", "PBM E-score": -0.261}, {"sequence": "AACGTATA", "PBM E-score": -0.226}, {"sequence": "ATTCGTCG", "PBM E-score": 0.0475}, {"sequence": "ATTACAAT", "PBM E-score": -0.188}, {"sequence": "CCCCTCGC", "PBM E-score": -0.157}, {"sequence": "AATGCAGA", "PBM E-score": -0.0762}, {"sequence": "CGTTCGAA", "PBM E-score": -0.0669}, {"sequence": "GCTGATAA", "PBM E-score": 0.131}, {"sequence": "GGACTACA", "PBM E-score": 0.0207}, {"sequence": "CGGAAAAC", "PBM E-score": 0.37}, {"sequence": "CATAGATC", "PBM E-score": -0.208}, {"sequence": "ACGCAACA", "PBM E-score": -0.0435}, {"sequence": "GATCACCA", "PBM E-score": -0.056}, {"sequence": "CTCAGCAC", "PBM E-score": -0.051}, {"sequence": "CACCAGCA", "PBM E-score": -0.143}, {"sequence": "ATGGCTGG", "PBM E-score": -0.193}, {"sequence": "ACATCCGT", "PBM E-score": 0.348}, {"sequence": "CCGGGGTC", "PBM E-score": 0.288}, {"sequence": "ATCAAGGC", "PBM E-score": -0.111}, {"sequence": "TACGCGTA", "PBM E-score": -0.119}, {"sequence": "GTGGAGAA", "PBM E-score": -0.184}, {"sequence": "CCTTCGCA", "PBM E-score": -0.236}, {"sequence": "GCTACCTA", "PBM E-score": 0.0157}, {"sequence": "GTTCCCTA", "PBM E-score": -0.00442}, {"sequence": "ACTACGAA", "PBM E-score": -0.184}, {"sequence": "GTGATGCA", "PBM E-score": -0.0269}, {"sequence": "AAACGGCC", "PBM E-score": 0.151}, {"sequence": "CCTGGAAA", "PBM E-score": -0.107}, {"sequence": "CGGGTTGA", "PBM E-score": 0.212}, {"sequence": "AGACCGCC", "PBM E-score": -0.153}, {"sequence": "ATCACCAA", "PBM E-score": -0.232}, {"sequence": "CCCGGACG", "PBM E-score": 0.163}, {"sequence": "ATCCCACC", "PBM E-score": 0.202}, {"sequence": "CGCATTTA", "PBM E-score": 0.037}, {"sequence": "CCCAGAGG", "PBM E-score": -0.237}, {"sequence": "ATCCGAAG", "PBM E-score": 0.48}, {"sequence": "AGGCGCAA", "PBM E-score": -0.0602}, {"sequence": "TTCCGCAA", "PBM E-score": 0.308}, {"sequence": "ATATCCCG", "PBM E-score": 0.306}, {"sequence": "CTCAGATA", "PBM E-score": -0.00864}, {"sequence": "AACTTCGA", "PBM E-score": -0.11}, {"sequence": "AAGTATGT", "PBM E-score": -0.23}, {"sequence": "CTTATTGC", "PBM E-score": -0.262}, {"sequence": "CAGGCGCA", "PBM E-score": -0.235}, {"sequence": "AATAACAT", "PBM E-score": 0.113}, {"sequence": "AGAACGTG", "PBM E-score": -0.0529}, {"sequence": "CGGTGGGC", "PBM E-score": 0.00684}, {"sequence": "CAACCTTG", "PBM E-score": -0.234}, {"sequence": "AGCAGTGC", "PBM E-score": -0.162}, {"sequence": "TTGCGCAA", "PBM E-score": -0.218}, {"sequence": "TAGGCGGA", "PBM E-score": 0.235}, {"sequence": "TAGGGTCA", "PBM E-score": -0.169}, {"sequence": "ACATCGAC", "PBM E-score": -0.0835}, {"sequence": "AATTTACT", "PBM E-score": -0.138}, {"sequence": "GTAACATA", "PBM E-score": 0.0921}, {"sequence": "CCACTATC", "PBM E-score": -0.00318}]}]}
